Laboratory results from PubChem BioAssay AID360 (National Center for Advancing Translational Sciences (NCATS), 2006).
Among all 48,000 compounds or so, about 550 (1.1%) were called active. Not shown: some 4% with an inconclusive outcome. No stated cut-off is given here; in the data, active means potency below about 15 µM; inconclusive means mostly about 16 µM to 33 µM; inactive means weaker than that. The list shows a part of the results.

molecular target: Lysosomal acid glucosylceramidase (Homo sapiens) (UniProt P04062); experiment: Glucocerebrosidase; details: purified enzyme, resorufin glucoside fluorescence (screen aimed at inhibitors), 20 min;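 further: the screen sought inhibitors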
UniProt P04062, sequence (P04062 whole entry, looked up): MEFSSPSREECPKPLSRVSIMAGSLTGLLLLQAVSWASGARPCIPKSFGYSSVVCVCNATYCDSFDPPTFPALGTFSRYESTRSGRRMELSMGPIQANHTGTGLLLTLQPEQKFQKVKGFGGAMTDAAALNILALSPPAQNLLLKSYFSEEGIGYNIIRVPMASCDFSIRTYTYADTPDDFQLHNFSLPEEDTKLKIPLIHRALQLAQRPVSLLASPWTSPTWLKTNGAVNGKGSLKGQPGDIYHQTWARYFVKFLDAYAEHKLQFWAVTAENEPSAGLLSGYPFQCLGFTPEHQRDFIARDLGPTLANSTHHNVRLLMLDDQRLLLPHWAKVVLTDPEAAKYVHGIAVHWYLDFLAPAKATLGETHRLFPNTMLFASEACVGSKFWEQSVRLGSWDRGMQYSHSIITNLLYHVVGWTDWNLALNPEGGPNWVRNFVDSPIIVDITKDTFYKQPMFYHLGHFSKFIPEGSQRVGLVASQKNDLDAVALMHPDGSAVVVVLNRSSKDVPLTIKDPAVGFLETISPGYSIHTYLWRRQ
Method in brief: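 Normal human glucocerebrosidase (0.2 nM final) was assayed with resorufin β-D-glucopyranoside (30 uM final) in 50mM citric acid/KH2PO4, 10mM sodium taurocholate, 0.01% tween-20, pH 5.9. Compounds were titrated; fluorescence (Ex 548, Em 600) read after 20 min at RT.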
Potency means the concentration at half of the fitted maximal effect.

Potency, inactive:
Cn1c(=O)n(-c2cccc(Cl)c2)c(=O)n1C > 76.9 µM
CCC(=O)N1CCc2cc(S(=O)(=O)NCCN3CCCCC3CC)ccc21 (centres undefined) > 76.9 µM
COc1ccc(-c2nnc(CSc3nc4ccccc4c(=O)n3C)o2)cc1OC > 76.9 µM
O=C(CNS(=O)(=O)c1ccc(C(=O)N2CCOCC2)cc1)N1CCOCC1 > 76.9 µM
CS(=O)(=O)N1CCCC(C(=O)NCCc2ccccc2)C1 (centres undefined) > 76.9 µM
O=S(=O)(c1ccc2c(c1)OCCO2)N1CCN(c2nc3ccccc3s2)CC1 > 76.9 µM
COc1cccc(N2CC(C(=O)NC3CCCCC3)CC2=O)c1 (centres undefined) > 76.9 µM
CCc1ccccc1OCC(=O)Nc1ccc(S(N)(=O)=O)cc1 > 76.9 µM
c1ccc(Cn2c(Sc3nnnn3-c3ccccc3)nnc2-c2ccccc2)cc1 > 76.9 µM
CCOC(=O)CSc1nc2ccccc2c(=O)n1CC1CCCO1 (centres undefined) > 76.9 µM
c1ccc(N2CCN(c3cnccn3)CC2)nc1 > 76.9 µM
Cc1nc2cc(Cl)ccc2n1CCO > 76.9 µM
CCCN1C(=O)c2ccccc2NC1c1ccc(OC)cc1O (centres undefined) > 76.9 µM
COc1ccccc1C(=O)n1nc(-c2ccc(Cl)cc2)nc1N > 76.9 µM
O=C1CC(c2ccccc2)Sc2ccccc2N1 (centres undefined) > 76.9 µM
Cc1cccc(OCC(=O)Nc2ccc3c(c2)OCCO3)c1 > 76.9 µM
Cc1cccc(OCC2=NS(=O)(=O)c3ccccc3N2)c1
Cc1cc(NC(=O)CCc2ccc(S(=O)(=O)N3CCOCC3)cc2)n(-c2ccccc2)n1 > 76.9 µM
C=CCOc1ccc(C2/C(=C(\O)c3c(C)[nH]c(C(=O)OC)c3C)C(=O)C(=O)N2CCN(C)C)cc1 (centres undefined) > 76.9 µM
COc1ccc(CCN2C(=O)CCC2(C)C(=O)NCc2cccnc2)cc1OC (centres undefined) > 76.9 µM
CC(=O)Nc1ccc(S(=O)(=O)N2CCC(NC(=O)C(Cc3cccn3C)NC(C)=O)CC2)cc1 (centres undefined) > 76.9 µM
CCN(CCO)Cc1cc(=O)oc2c(C)c(C)ccc12 > 76.9 µM
O=C(NCC(=O)N(CCN1CCOCC1)C(C(=O)NC1CCCC1)c1cccs1)c1ccco1 (centres undefined) > 76.9 µM
CCOC(=O)CNC(=O)CSc1nnc(-c2ccco2)n1Cc1ccco1 > 76.9 µM
COc1ccc2c(c1)c1ccccc1n2C > 76.9 µM
CCOc1cc(NC(=O)C2CCCO2)c(OCC)cc1NC(C)=O (centres undefined) > 76.9 µM
Cc1oc(-c2ccccc2Cl)cc1-c1nn2c(-c3ccco3)nnc2s1 > 76.9 µM
c1ccc(-c2nnc(CSc3nnc(-c4ccncc4)n3Cc3ccco3)o2)cc1 > 76.9 µM
CC(=O)NCC(=O)NC(C(=O)Nc1ccc2c(c1)OCCO2)c1ccc(C)cc1 (centres undefined) > 76.9 µM
O=C(Nc1cnn(Cc2ccccc2)c1)c1nc2ncccn2n1
COc1ccc(NC(=O)C2CC(=O)N(c3cc(C)ccc3C)C2)cc1 (centres undefined) > 76.9 µM
Cc1ccc2cccc(S(=O)(=O)Nc3c(C)n(C)n(-c4ccccc4)c3=O)c2n1 > 76.9 µM
Cc1ccc(S(=O)(=O)N2CCN(C(=O)N(C)C)CC2)cc1C > 76.9 µM
c1ccc(CC2CCN(Cc3nc(-c4ccccc4)no3)CC2)cc1 > 76.9 µM
Cc1nn(-c2ccccc2)c(Oc2ccc(F)cc2)c1/C=N/n1cnnc1 > 76.9 µM
CCOC(=O)CSC1=Nc2ccccc2C2=NC(CC(=O)NCc3ccc4c(c3)OCO4)C(=O)N12 (centres undefined) > 76.9 µM
CCn1c(SCC(=O)OCC(=O)N2c3ccccc3NC(=O)C2(C)C)nnc1-c1ccco1 > 76.9 µM
CCN1CCN(c2ncc3c(n2)CC(c2cc(OC)c(OC)c(OC)c2)CC3=O)CC1 (centres undefined) > 76.9 µM
Cc1ccc(NC2c3ncccc3C(=O)N2C2CCCCC2)cc1C (centres undefined) > 76.9 µM
CCOCCn1c(N2CCN(c3ccc(OC)cc3)CC2)nc2c1c(=O)[nH]c(=O)n2C > 76.9 µM
O=C(Cc1ccccc1)N1CCC(c2nc(-c3ccc(F)cc3)no2)CC1 > 76.9 µM
Cc1cccc(N2CCN(S(=O)(=O)c3ccc4c(c3)n(C)c(=O)c(=O)n4C)CC2C)c1 (centres undefined) > 76.9 µM
CN1CCc2c(sc3c2C(=O)NC(c2ccccn2)N3)C1 (centres undefined) > 76.9 µM
COCCn1nnnc1CN(CCc1ccc(OC)c(OC)c1)Cc1cc2ccc(C)cc2[nH]c1=O > 76.9 µM
COc1ccc(S(=O)(=O)NCc2ccc(C(=O)O)cc2)cc1 > 76.9 µM
O=C1NCCCC2c3c(cc(Br)c(O)c3Br)OC12N1CCOCC1 (centres undefined) > 76.9 µM
COc1cc2cc(C(c3nnnn3C3CCCC3)N3CCCCC3)c(=O)[nH]c2cc1OC (centres undefined) > 76.9 µM
Clc1c(CSc2nc3ccccc3o2)nc2sccn12 > 76.9 µM
CS(=O)(=O)N1CCC(C(=O)NCc2ccc(F)cc2Cl)CC1 > 76.9 µM
O=C(CN1C(=O)c2ccccc2C1=O)Nc1ccc(-c2nc3ccccc3o2)cc1 > 76.9 µM
CCc1nnc(NC(=O)CSc2nnc(COc3cccc(C)c3)o2)s1 > 76.9 µM
CCc1ccc(NC(=O)C(C)Nc2ccc(S(=O)(=O)NC(C)=O)cc2)cc1 (centres undefined) > 76.9 µM
COc1cc(-c2c(C#N)c(N)nc3c2c(C)nn3-c2ccc(C)c(C)c2)cc(OC)c1OC > 76.9 µM
CCOC(=O)CSc1nncc2ccc(OC)c(OC)c12 > 76.9 µM
CS(=O)(=O)N(CC(=O)NCc1ccco1)c1ccc2c(c1)OCO2 > 76.9 µM
Cc1cc(C)nc(NC2=NCC(=O)N2c2ccc3c(c2)OCCO3)n1 > 76.9 µM
Cn1c(Cc2cccs2)nnc1SC/C=C/c1ccccc1 > 76.9 µM
CCC(C(=O)NCc1ccco1)N(C(=O)CNS(=O)(=O)c1ccc(C)cc1)c1ccccc1OC (centres undefined) > 76.9 µM
Cc1ccc(S(=O)(=O)NCc2csc(C)n2)c(C)c1 > 76.9 µM
OCCOc1ccc(C2=NCCO2)cc1 > 76.9 µM
CCN(CC)C(=O)C1CC(=O)OC1(C)C (centres undefined) > 76.9 µM
CC1(c2ccccc2)NC(=O)N(CC(=O)NC(=O)NC2CCCC2)C1=O (centres undefined) > 76.9 µM
CC(=O)Nc1c(C(=O)N2CCN(c3ncccn3)CC2)cnn1-c1ccccc1Cl > 76.9 µM
CCOC(=O)c1sc2nc(CC(=O)OC)nc(NCc3ccco3)c2c1C > 76.9 µM
O=C(COc1ccccc1)Nc1nn[nH]n1 > 76.9 µM
CCOC(=O)Cn1c(=O)c2c(nc3n2CCN3Cc2ccccc2)n(C)c1=O > 76.9 µM
Fc1cccc(-n2c(-c3ccco3)nc3nc4ccccc4nc32)c1 > 76.9 µM
Cc1onc(-c2ccccc2)c1C(=O)n1cccn1 > 76.9 µM
CCCCN(CC)CCCNC(=O)CC1Nc2ccccc2NC1=O (centres undefined) > 76.9 µM
O=C1CN(S(=O)(=O)c2ccc(F)cc2)CC(=O)N1CCc1ccccc1 > 76.9 µM
Cc1ccnc(SCCn2c(N3CCN(C)CC3)nc3c2c(=O)[nH]c(=O)n3C)n1 > 76.9 µM
CCn1c(O)c(C=Nc2ccccc2)oc1=S > 76.9 µM
CCCCCCn1c(N2CCC(C(N)=O)CC2)nc2c1c(=O)n(C)c(=O)n2C > 76.9 µM
CC(=O)c1c(C(C)=O)c(C)n(-c2nc(-c3cccs3)c(C)s2)c1C > 76.9 µM
Cc1ccc2[nH]c(=O)c(CN(CCN3CCOCC3)C(=O)Nc3ccc(F)cc3)cc2c1 > 76.9 µM
Brc1ccc(C2=Nn3c(nnc3-c3cccnc3)SC2)s1 > 76.9 µM
C/C(NC1CCCC1)=C(/C#N)C(N)=O > 76.9 µM
O=S1(=O)CCC(NS(=O)(=O)c2cccc3cccnc23)C1 (centres undefined) > 76.9 µM
COc1ccccc1OCc1nc2ccccc2[nH]1 > 76.9 µM
CC(C)C(c1nnnn1Cc1ccco1)N1CCN(C2CCCC2)CC1 (centres undefined) > 76.9 µM
CCOc1cc(N2CCOCC2)c(OCC)cc1NC(=O)COC(=O)c1cc(C)oc1C > 76.9 µM
Cc1ccc(S(=O)(=O)NC(C(=O)OCC(=O)NC2CCS(=O)(=O)C2)C(C)C)cc1 (centres undefined) > 76.9 µM
O=C(Oc1c(CN2CCOCC2)cc(Cl)c2cccnc12)c1ccc(F)cc1 > 76.9 µM
COc1ccc(NS(=O)(=O)c2ccc(NC(=O)C3CCCO3)cc2)cc1 (centres undefined) > 76.9 µM
Cn1c(Cc2cccs2)nnc1SCc1nc2ccccc2[nH]1 > 76.9 µM
CCOC(=O)c1c(C)[nH]c(C)c1C(=O)CN1C(=O)NC(CC(C)C)C1=O (centres undefined) > 76.9 µM
COC(=O)c1ccccc1NC(=O)CN1CCN(C23CC4CC(CC(C4)C2)C3)CC1 > 76.9 µM
O=C(NS(=O)(=O)c1ccccc1)c1ccccc1F > 76.9 µM
CCCCOc1ccccc1C1CC(=O)NC2=C1C(=O)CCC2 (centres undefined) > 76.9 µM
